# Results: the supplement of paper PMC4723716
# ± gives the uncertainty stated by the source. Over roughly 9,900 compounds, “viability index relative to DMSO control” has its median near 1; the lowest 2% begin near 0.85. The list shows a part of the results.
# Test system: Plasmodium falciparum NF54 stage V gametocytes
# Test: viability index relative to DMSO control (fraction); higher = less gametocyte killing
# Conditions: 2.5 µM, incubation time: 72 h
# Method in brief: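 Gametocytes (P. falciparum NF54, stage V) were treated with compound at 2.5 µM for 72 hr at 37°C in low oxygen, in serum-free medium at 0.75% gametocytemia and 1.25% hematocrit. Counts of 20–70 µm2 red particles, taken from one field per well after MitoTracker Red CMXRos with saponin, were divided by the plate mean of solvent-only wells. This ratio is the viability index.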
# [1] = library set: Broad Institute DOS
Structure (SMILES),viability index [1],viability index (library set: Broad Institute Blood Stage)
C/C=C/c1ccccc1[C@@H]1[C@@H](C#N)N(C(C)=O)[C@@H]1CO,1.14 ± 0.046,–
O=C(C[C@H]1CC[C@H](NC(=O)C2CC2)[C@H](CO)O1)Nc1ccccc1,0.992 ± 0.033,–
COCCNC(=O)[C@@H]1[C@@H](CO)[C@@H]2Cn3c(ccc(C4=CCCCC4)c3=O)[C@H]1N2Cc1cocn1,0.983 ± 0.054,–
NCC[C@@H]1CC[C@@H](NC(=O)NC2CCCCC2)[C@H](CO)O1,1.02 ± 0.047,–
C[C@@H]1CCCCO[C@@H](CN(C)Cc2ccc(C(=O)O)cc2)[C@H](C)CN([C@@H](C)CO)C(=O)c2cc(N(C)C)ccc2O1,1.13 ± 0.093,–
COc1ccc2c3c([nH]c2c1)[C@@H](CO)N(Cc1ccccc1F)C[C@]31CCN(CC1)C(=O)C1CC1,0.93 ± 0.081,–
O=C(C[C@@H]1CC[C@@H](NC(=O)c2cccnc2)[C@@H](CO)O1)NCc1ccc(Cl)c(Cl)c1,0.965 ± 0.045,–
C[C@H]1CN([C@@H](C)CO)C(=O)c2c(c3ccccc3n2C)-c2ccccc2CO[C@@H]1CN(C)C(=O)Nc1cccc(C(F)(F)F)c1,–,0.871 ± 0.045
COc1ccccc1NC(=O)N1C[C@@H](O)COC[C@H]2O[C@@H](CC(=O)NCCc3ccncc3)CC[C@@H]21,1.07 ± 0.0041,–
CC(=O)N(Cc1cccc(F)c1)C[C@H]1[C@@H](c2ccccc2)[C@@H](CO)N1C(C)=O,0.98 ± 0.075,–
C/C=C/c1ccc([C@@H]2[C@@H](CO)N(C(C)=O)[C@H]2CNC(=O)c2ccccc2)cc1,1 ± 0.024,–
O=C1CNC[C@H]2[C@@H](c3ccc(C#Cc4cccnc4)cc3)[C@@H](CO)N12,1.01 ± 0.059,–
COCC(=O)N1CC2(C1)[C@@H](c1ccccc1)[C@@H](CO)N2CCC(F)(F)F,1.1 ± 0.17,–
CO[C@H]1CN(C)C(=O)c2ccc(NS(=O)(=O)CC(F)(F)F)cc2OC[C@@H](C)N(Cc2nccs2)C[C@H]1C,1.07 ± 0.14,–
CC(C)C(=O)Nc1ccc2c(c1)C(=O)N(C)[C@H]1CC[C@H](CC(=O)NCCc3ccccc3)O[C@H]1CO2,1.09 ± 0.053,–
CN(C)CCCNC(=O)C[C@H]1CC[C@H]2[C@@H](COC[C@@H](O)CN2CC2CC2)O1,1.02 ± 0.053,–
CO[C@@H]1CN(C)C(=O)c2cc(NC(=O)NC3CCCCC3)ccc2OC[C@@H](C)N(CC2CCOCC2)C[C@H]1C,1.08 ± 0.084,–
COc1cccc(C(=O)Nc2ccc3c(c2)C(=O)N(C)[C@H]2CC[C@@H](CC(=O)N[C@@H](C)c4ccccc4)O[C@H]2CO3)c1,1.1 ± 0.12,–
Cc1cc(C(=O)Nc2cccc3c2O[C@@H](CN(C)C)[C@@H](C)CN([C@H](C)CO)C3=O)n(C)n1,1.08 ± 0.027,–
C[C@H]1CN([C@@H](C)CO)S(=O)(=O)c2ccc(-c3ccncc3)cc2O[C@H]1CN(C)S(C)(=O)=O,1.023 ± 0.0035,–
C[C@@H]1COCn2nncc2CC[C@H](Cc2cccc(Cl)c2)C(=O)N1,1.09 ± 0.051,–
O=C1C[C@@H](c2ccccc2)C(=O)N[C@H](c2ccc3c(c2)OCO3)C/C=C\C[C@@H](c2ccc(F)cc2)N1,1.07 ± 0.063,–
CCCC#Cc1ccc2c(c1)[C@@H]1[C@@H](CCN1Cc1cncnc1)[C@@H](CO)N2,1.048 ± 0.0064,–
CCCNC(=O)N1CC(=O)N2[C@H](CO)[C@@H](c3ccc(-c4ccc(F)cc4)cc3)[C@@H]2C1,1.03 ± 0.013,–

Structure (SMILES),viability index [1],viability index (library set: Broad Institute Blood Stage)
CC(=O)N1CCCCN2[C@H](CO)[C@@H](c3ccc(-c4ccccc4)cc3)[C@H]2C1,0.985 ± 0.059,–
CCS(=O)(=O)N(C)C[C@@H]1N[C@H](CO)[C@@H]1c1ccc(C2=CCCCC2)cc1,0.947 ± 0.079,–
COc1ccc(NC(=O)Nc2ccc3c(c2)[C@H]2C[C@H](CC(=O)NCC(F)(F)F)O[C@@H](CO)[C@H]2O3)cc1,0.986 ± 0.012,–
O=C(C[C@@H]1CC[C@H]2[C@@H](COC[C@H](O)CN2S(=O)(=O)c2ccccc2)O1)NCC1CCCCC1,1.005 ± 0.0034,–
COc1ccccc1-c1cnc2c(c1)C(=O)N([C@@H](C)CO)C[C@@H](C)[C@@H](CN(C)C(=O)CC1CC1)O2,1.05 ± 0.079,–
C[C@@H]1CCCCO[C@H](CN(C)C(=O)c2ccncc2)[C@H](C)CN([C@H](C)CO)C(=O)c2cc(NS(=O)(=O)c3cccs3)ccc2O1,1.09 ± 0.059,–
COc1ccc(CNC(=O)C[C@@H]2C[C@H]3c4cc(N(C)C)ccc4O[C@H]3[C@@H](CO)O2)cc1,1.12 ± 0.03,–
COc1ccc(NC(=O)N[C@@H]2CC[C@H](CCNC(=O)CN3CCOCC3)O[C@@H]2CO)cc1,0.894 ± 0.025,–
COc1cccc(-c2ccc3c(c2)[C@H]2[C@H](CCN2S(=O)(=O)C2=NC(C)C=N2)[C@@H](CO)N3C)c1 (stereo partly specified),1.06 ± 0.021,–
O=C(C[C@@H]1CC[C@H](NC(=O)C2CC2)[C@H](CO)O1)Nc1ccccc1,0.916 ± 0.036,–
Cc1noc(C)c1S(=O)(=O)N(C)C[C@@H]1Oc2c(NS(=O)(=O)c3cn(C)cn3)cccc2C(=O)N([C@@H](C)CO)C[C@@H]1C,1 ± 0.028,–
CCS(=O)(=O)Nc1ccc2c(c1)C(=O)N(C)[C@@H]1CC[C@H](CC(=O)NCc3ccc(OC)cc3)O[C@H]1CO2,1.01 ± 0.078,–
COCC(=O)Nc1ccc2c(c1)[C@H]1C[C@@H](CC(=O)N3CCOCC3)O[C@H](CO)[C@H]1O2,1.07 ± 0.037,–
C[C@@H]1CN([C@H](C)CO)C(=O)c2cc(NS(=O)(=O)c3cn(C)cn3)ccc2O[C@@H](C)CCCCO[C@H]1CN(C)Cc1ccc2c(c1)OCO2,1.09 ± 0.047,–
CN(C)C(=O)c1cccc(-c2ccc3n(c2=O)C[C@@H]2[C@@H](CO)[C@H](C(=O)NCC4CC4)N[C@H]32)c1,0.973 ± 0.024,–
CN(C)C(=O)c1ccc(-c2ccc([C@H]3[C@H](C#N)N(C(=O)C4CC4)[C@H]3CO)cc2)cc1,1.14 ± 0.039,–
COc1ccc2c3c([C@H](CO)N(Cc4ccc(Cl)cc4)C[C@]33CCN(CC4CC4)CC3)n(C)c2c1,0.901 ± 0.069,–
COc1ccc2c3c([nH]c2c1)[C@@H](CO)N(Cc1ccccn1)C[C@]31CCN(CC1)C(C)=O,0.975 ± 0.18,–
COc1cccc(NC(=O)N2C[C@H](O)COC[C@@H]3O[C@H](CC(=O)N(C)C)CC[C@H]32)c1,0.982 ± 0.081,–
COc1cccc(-c2ccc3c(c2)[C@H]2[C@H](CCN2C(=O)c2ccccn2)[C@@H](CO)N3)c1,1.02 ± 0.068,–
COCC(=O)Nc1ccc2c(c1)C(=O)N(C)C[C@H](OC)[C@@H](C)CN(CCc1ccccc1)[C@@H](C)CO2,1.05 ± 0.037,–
CO[C@@H]1CN(C)C(=O)c2cc(NC(=O)c3ccc(Oc4ccccc4)cc3)ccc2OC[C@H](C)NC[C@H]1C,0.983 ± 0.053,–
CN1[C@H](CO)[C@H]2c3ccccc3N(C(=O)Nc3cc(F)ccc3F)C[C@H]21,1 ± 0.052,–
COc1ccc(CNC(=O)N(C)C[C@@H]2OCc3ccccc3-c3c(n(C)c4ccccc34)C(=O)N([C@H](C)CO)C[C@H]2C)cc1,0.994 ± 0.019,–

Structure (SMILES),viability index [1],viability index (library set: Broad Institute Blood Stage)
O=C(c1cnccn1)N1CC(=O)N2[C@@H](CO)[C@H](c3ccc(-c4cccc(F)c4)cc3)[C@@H]2C1,1 ± 0.049,–
CN1c2ccc(Br)cc2[C@H]2[C@H](CCN2C(=O)CN2CCOCC2)[C@H]1CO,1.04 ± 0.031,–
CN1C(=O)c2cc(NC(=O)C3CCOCC3)ccc2OC[C@H]2O[C@H](CC(=O)NCc3ccccc3F)CC[C@@H]21,0.913 ± 0.099,–
C[C@@H]1CCCCO[C@@H](CN(C)Cc2ccncc2)[C@H](C)CN([C@@H](C)CO)C(=O)c2cc(NS(=O)(=O)c3ccc(Cl)cc3)ccc2O1,1.01 ± 0.014,–
CO[C@H]1CC[C@H]2CCOc3ccc(C#N)cc3C(=O)N(C)[C@@H](C)C(=O)N(C)C[C@@H]1O2,1.08 ± 0.015,–
O=C(C1CC1)N1CC[C@@H]2[C@@H](CO)Nc3ccc(Br)cc3[C@@H]21,1 ± 0.08,–
C[C@H]1CN([C@@H](C)CO)C(=O)c2c(c3ccccc3n2C)-c2ccccc2CO[C@@H]1CN(C)S(=O)(=O)c1ccc([N+](=O)[O-])cc1,0.936 ± 0.032,–
CO[C@H](CN(C)S(=O)(=O)c1cn(C)cn1)[C@H](C)CN(C(=O)Nc1ccc(C(F)(F)F)cc1)[C@@H](C)CO,1.08 ± 0.038,–
C[C@H]1CN([C@@H](C)CO)C(=O)c2cc(C3=CCCC3)cnc2O[C@@H]1CN(C)C(=O)Nc1ccc(C(F)(F)F)cc1,0.992 ± 0.025,–
COC(=O)[C@H]1[C@H](CO)[C@H]2Cn3c(ccc(-c4ccncc4)c3=O)[C@H]2N1Cc1ccccc1F,0.904 ± 0.13,–
CCN1[C@@H]2c3ccc(-c4ccncc4)c(=O)n3C[C@H]1[C@H](CO)[C@H]2C(=O)NCCc1cn(C)cn1,0.92 ± 0.029,–
C[C@H](CO)N1C[C@H](C)[C@H](CN(C)S(C)(=O)=O)Oc2ncc(-c3ccc(F)cc3)cc2C1=O,1.05 ± 0.077,–
C[C@H]1CN([C@@H](C)CO)C(=O)c2c(c3ccccc3n2C)-c2ccccc2CO[C@@H]1CN(C)C,1.09 ± 0.061,–
C[C@@H]1CN([C@H](C)CO)C(=O)CCCn2nncc2CO[C@@H]1CN(C)C(=O)Nc1cccc(Oc2ccccn2)c1,0.984 ± 0.028,–
C[C@H](CO)N1C[C@H](C)[C@@H](CN(C)S(C)(=O)=O)Oc2ccc(NC(=O)Nc3ccc(F)cc3)cc2CC1=O,0.965 ± 0.028,–
CN1C(=O)c2cc(NS(=O)(=O)c3cccc(F)c3)ccc2OC[C@@H]2O[C@H](CC(=O)N3CCc4ccccc4C3)CC[C@@H]21,0.9112 ± 0.0034,–
O=C(CN1CCOCC1)N1CC(=O)N2[C@@H](CO)[C@H](c3ccc(-c4cccc(F)c4)cc3)[C@@H]2C1,1.1 ± 0.027,–
COc1ccc2c3c([C@@H](CO)N(C[C@]33CCN(CC3)C(=O)C3CCCC3)S(C)(=O)=O)n(C)c2c1,1.02 ± 0.079,–
O=C1CNC[C@@H]2[C@H](c3ccc(C4=CCCC4)cc3)[C@H](CO)N12,1.036 ± 0.0042,–
O=C(c1ccccn1)N1CC2(C1)[C@H](c1ccccc1)[C@@H](CO)N2Cc1ccc(F)cc1,1.0485 ± 0.00086,–
COCCNC(=O)C[C@@H]1CC[C@@H]2[C@H](COC[C@@H](O)CN2C(=O)c2cc(Cl)cc(Cl)c2)O1,0.948 ± 0.032,–
C[C@@H]1CN([C@@H](C)CO)C(=O)c2cc(NC(=O)Cn3cnnn3)ccc2O[C@@H]1CN(C)Cc1ccc(C(=O)Nc2ccccc2N)cc1,1 ± 0.11,–
O=C(C[C@H]1CC[C@@H](NC(=O)c2ccc3c(c2)OCO3)[C@@H](CO)O1)NCc1ccc(Oc2ccccc2)cc1,1.09 ± 0.022,–
